# Measurements: PMC4336329 (PLoS ONE, 2015)
# Hit rate of the full screen: of about 310,000 compounds, about 14,000 (4.5%) showed an effect of 50% or more. The effect is printed as a negative number. This is one part of the list.
# Biological target: human ether-à-go-go-related gene (hERG) potassium channel (human, UniProt Q12809)
# Assay: primary screen, population patch clamp on CHO cells stably expressing hERG
# 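Also: peak tail current of the secondary pulse compared with the same well before compound.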
# Sequence of human ether-à-go-go-related gene (hERG) potassium channel (Q12809 whole entry, looked up): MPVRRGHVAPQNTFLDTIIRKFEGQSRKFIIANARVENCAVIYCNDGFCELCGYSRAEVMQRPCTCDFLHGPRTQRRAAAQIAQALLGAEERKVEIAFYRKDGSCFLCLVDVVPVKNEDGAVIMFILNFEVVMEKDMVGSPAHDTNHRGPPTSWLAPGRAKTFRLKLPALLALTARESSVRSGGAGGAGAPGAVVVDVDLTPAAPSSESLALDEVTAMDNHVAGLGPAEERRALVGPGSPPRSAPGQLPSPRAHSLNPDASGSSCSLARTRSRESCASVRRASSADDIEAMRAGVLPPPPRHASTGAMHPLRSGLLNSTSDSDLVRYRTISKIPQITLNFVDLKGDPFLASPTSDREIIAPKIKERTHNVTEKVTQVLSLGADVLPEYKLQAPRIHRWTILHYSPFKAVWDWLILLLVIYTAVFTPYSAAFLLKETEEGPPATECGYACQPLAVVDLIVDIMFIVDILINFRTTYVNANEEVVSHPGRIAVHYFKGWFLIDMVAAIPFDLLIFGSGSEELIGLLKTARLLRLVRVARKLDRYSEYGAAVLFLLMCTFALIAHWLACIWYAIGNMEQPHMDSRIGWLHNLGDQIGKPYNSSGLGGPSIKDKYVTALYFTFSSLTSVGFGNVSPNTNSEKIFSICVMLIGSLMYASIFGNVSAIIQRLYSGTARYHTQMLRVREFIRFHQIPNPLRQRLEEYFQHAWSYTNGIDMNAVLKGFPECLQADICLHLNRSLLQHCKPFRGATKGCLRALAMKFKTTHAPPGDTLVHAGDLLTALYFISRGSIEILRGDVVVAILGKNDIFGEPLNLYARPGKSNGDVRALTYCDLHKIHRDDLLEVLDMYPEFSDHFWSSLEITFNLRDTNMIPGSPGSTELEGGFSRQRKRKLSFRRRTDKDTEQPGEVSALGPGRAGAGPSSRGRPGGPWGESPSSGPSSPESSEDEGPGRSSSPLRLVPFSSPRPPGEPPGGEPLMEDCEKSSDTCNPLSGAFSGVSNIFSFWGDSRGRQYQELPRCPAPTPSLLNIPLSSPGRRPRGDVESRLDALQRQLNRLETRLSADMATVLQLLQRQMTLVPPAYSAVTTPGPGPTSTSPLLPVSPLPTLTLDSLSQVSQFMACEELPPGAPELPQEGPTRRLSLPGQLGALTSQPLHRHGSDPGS
row,Structure (SMILES),"hERG current change (%, negative = inhibition) at 10uM [%]"
1,Cc1ccc(OCCC(=O)OCC(=O)NCc2ccccc2)cc1,-0.864
2,COc1ccc(/C=N/NC(=O)c2cccc(OC(F)(F)C(F)F)c2)c(OC)c1OC,-3.77
3,O=C(NCc1ccncc1)/C(=N/O)c1ccccc1,18.7
4,O=C(Nc1cc(Sc2ccccn2)cc([N+](=O)[O-])c1)c1cccc(F)c1,8.13
5,Cc1cc(OCC(O)CN2CCCC2)ccc1C(C)C.Cl (stereo not drawn),-20.1
6,Cc1cc(/C=C2/C(=O)NC(=O)N(Cc3ccco3)C2=O)c(C)n1-c1ccccc1,5.76
7,CCOC(=O)/C(C#N)=C/c1ccc(OC)c(OC)c1,2.78
8,C[C@H]1CN=C(Nc2ccccc2)N1CCC1CCCCC1,-46.8
9,CCOC(=O)n1c(=O)n(Cc2ccc(OC)cc2)c2ccccc21,-9.02
10,O=[N+]([O-])c1cc(Cl)c(O)c(-[n+]2c(-c3ccccc3)cc(-c3ccccc3)cc2-c2ccccc2)c1.[O-][Cl+3]([O-])([O-])[O-],-38.7
11,CC(C)CN(C(=O)COC(=O)c1cccc2ccccc12)c1c(N)n(Cc2ccccc2)c(=O)[nH]c1=O,6.01
12,CCCNC(=O)c1onc(CSc2ccncc2)c1C(=O)NCCC,-21.7
13,CC(=O)c1ccc(NC(=O)CO/N=C(\C)c2cccs2)cc1,-8.22
14,CCOC(=O)c1c(C)noc1-c1ccc(Br)o1,-4.9
15,CN(CC(=O)Nc1ccc(F)cc1)C(=O)COC(=O)c1ccccc1,-11.6
16,O=c1cc(C(F)(F)F)c2sc(N3CCCCC3)nc2[nH]1,20.1
17,CCCC(=O)OCC(=O)NCc1ccc(Cl)cc1,17.6
18,Cc1ccc(C(=O)Nc2cccc(C(=O)N3CCOCC3)c2)cc1,-8.21
19,CCCOP(=O)(OCCC)C(NC(=O)C(C)(C)C)c1ccccc1 (stereo not drawn),8.73
20,O=c1[nH]c(SCc2ccc(F)cc2Cl)nc2ccccc12,22.3
21,CCN(CC)S(=O)(=O)c1ccc(NC(=O)CSc2nnc(-c3cccc(OC)c3)n2C)cc1,-17.6
22,COc1cc(/C=N/O)ccc1OCc1ccc(Cl)cc1,19.6
23,Cc1ccc(C(=O)COC(=O)CNC(=O)c2cccs2)cc1,-10.3

row,Structure (SMILES),"hERG current change (%, negative = inhibition) at 10uM [%]"
1,Cc1cc(C)nc(CCNC(=O)c2cc(COc3ccccc3)on2)n1,1.31
2,CCOC(=O)CC(=O)CSc1ccc2nnc(-c3ccccc3)n2n1,-71.7
3,COc1ccc(/C=C2\N=C(c3c(-c4ccccc4)noc3C)OC2=O)cc1OC,3.74
4,Cc1ccc(NC(=O)CSc2nnc(-c3cccnc3)n2CCN2CCCCC2)cc1,-69
5,COc1cc(C(=O)Nc2ccc(O)cc2C(=O)O)ccc1OC(C)=O,-4.06
6,Brc1ccc(C2NCCS2)cc1 (stereo not drawn),11.6
7,Cc1nc2ccc([N+](=O)[O-])cc2c(=O)n1Cc1cccc(F)c1,-33.6
8,COc1ccc(S(=O)(=O)Nc2cc(Cl)ccc2OC)cc1,-3.27
9,CCCNC(=S)N1CCC(C(=O)c2ccc3c(c2)OCCO3)CC1,-28.9
10,Cc1nc(N2CCN(c3ccccc3)CC2)[nH]c(=O)c1CCC(C)C,19.1
11,CCOC(=O)C1=C(C)NC2=C(C(=O)CC(C)(C)C2)C1c1ccc2c(c1)CCCN2C (stereo not drawn),-10.7
12,CCN1C(=O)c2cccc3c(S(=O)(=O)N(C(=O)c4cccnc4)c4ccc(OC)cc4)ccc1c23,-2.72
13,O=C(C1CC1)N1CCN(C(c2ccccc2)c2ccccc2)CC1,6.33
14,COc1cc2c3c(c1)C(C)=CC(C)(C)N3C(=O)C2=O,15.1
15,Cc1ccc(N2CSC3=C(C#N)C(c4cccs4)CC(=O)N3C2)cc1 (stereo not drawn),11.2
16,Cc1ccc(NC(=O)Cn2c(CCC(=O)O)ccc2-c2cccs2)cc1,-2.61
17,CCOc1ccccc1NS(=O)(=O)N(C)C,-8.14
18,CC(=O)c1cccc(NC(=O)CSc2ncc(C(=O)Nc3ccccc3)c(=O)n2C)c1,-14.4
19,CCOC(=O)c1sc(NC(=O)CSc2nc(C)cc(C(F)(F)F)n2)c(C#N)c1C,4.26
20,COc1cc(/C=N/NC(=O)CSCc2ccc([N+](=O)[O-])cc2)cc(OC)c1OC,-26.6
21,CN(C)c1ccc2c3c(ccc(N(C)C)c13)COC2,-34.8
22,O=C1CC(SCc2nc3ccccc3[nH]2)C(=O)N1c1cccc(F)c1 (stereo not drawn),4.27
